According to patent publication US5739291, “Glutamate receptor antibodies” (The Salk Institute For Biological Studies, dated 1998):

Biological target: T1, glutamate receptor subunit GluR3 (rat)
T1 chain: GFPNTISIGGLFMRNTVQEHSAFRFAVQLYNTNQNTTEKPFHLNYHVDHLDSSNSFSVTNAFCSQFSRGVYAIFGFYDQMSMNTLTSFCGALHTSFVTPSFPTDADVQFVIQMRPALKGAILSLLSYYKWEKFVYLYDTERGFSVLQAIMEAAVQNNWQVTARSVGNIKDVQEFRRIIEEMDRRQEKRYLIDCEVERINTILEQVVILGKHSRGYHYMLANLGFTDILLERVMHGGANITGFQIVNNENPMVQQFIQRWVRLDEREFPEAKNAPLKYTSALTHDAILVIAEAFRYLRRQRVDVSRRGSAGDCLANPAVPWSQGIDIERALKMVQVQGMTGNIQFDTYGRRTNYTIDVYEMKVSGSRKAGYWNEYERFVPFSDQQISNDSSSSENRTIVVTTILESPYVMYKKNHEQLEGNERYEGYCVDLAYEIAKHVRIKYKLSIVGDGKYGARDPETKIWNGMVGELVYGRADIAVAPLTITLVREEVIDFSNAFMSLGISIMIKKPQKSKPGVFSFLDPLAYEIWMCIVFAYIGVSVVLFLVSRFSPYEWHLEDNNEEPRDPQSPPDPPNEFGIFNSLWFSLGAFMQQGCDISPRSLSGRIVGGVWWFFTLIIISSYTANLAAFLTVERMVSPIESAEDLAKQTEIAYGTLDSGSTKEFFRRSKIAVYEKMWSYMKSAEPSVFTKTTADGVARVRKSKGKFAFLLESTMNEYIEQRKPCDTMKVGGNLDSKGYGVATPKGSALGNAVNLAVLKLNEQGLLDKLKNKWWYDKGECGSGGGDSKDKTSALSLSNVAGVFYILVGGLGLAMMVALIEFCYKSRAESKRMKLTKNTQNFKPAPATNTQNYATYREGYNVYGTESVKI
Experiment: cell-based or functional assay

KA-evoked currents in Xenopus oocytes on co-expression, against the summed responses of singly injected oocytes: ~2 fold
B1: glutamate receptor subunit GluR2 (receptor)
chain: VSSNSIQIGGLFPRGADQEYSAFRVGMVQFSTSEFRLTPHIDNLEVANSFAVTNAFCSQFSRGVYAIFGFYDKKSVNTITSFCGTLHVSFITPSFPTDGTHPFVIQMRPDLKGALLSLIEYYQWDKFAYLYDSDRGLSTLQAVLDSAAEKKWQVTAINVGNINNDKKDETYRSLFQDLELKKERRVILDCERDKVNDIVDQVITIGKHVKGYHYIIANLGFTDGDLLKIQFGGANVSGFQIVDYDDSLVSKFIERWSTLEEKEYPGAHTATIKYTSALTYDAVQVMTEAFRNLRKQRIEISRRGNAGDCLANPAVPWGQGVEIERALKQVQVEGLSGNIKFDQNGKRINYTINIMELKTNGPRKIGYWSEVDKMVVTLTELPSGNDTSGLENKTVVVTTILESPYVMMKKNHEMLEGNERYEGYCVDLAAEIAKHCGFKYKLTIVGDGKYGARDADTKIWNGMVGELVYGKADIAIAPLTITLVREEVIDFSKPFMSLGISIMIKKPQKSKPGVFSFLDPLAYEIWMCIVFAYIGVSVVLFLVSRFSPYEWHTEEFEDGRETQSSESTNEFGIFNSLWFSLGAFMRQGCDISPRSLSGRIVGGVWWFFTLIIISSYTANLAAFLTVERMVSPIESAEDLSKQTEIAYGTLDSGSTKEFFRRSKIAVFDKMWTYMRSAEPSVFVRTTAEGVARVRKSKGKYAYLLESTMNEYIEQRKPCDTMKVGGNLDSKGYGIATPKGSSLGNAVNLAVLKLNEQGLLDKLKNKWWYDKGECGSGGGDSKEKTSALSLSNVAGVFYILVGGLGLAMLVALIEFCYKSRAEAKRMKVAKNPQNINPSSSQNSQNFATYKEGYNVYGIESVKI
